# Test results from a collection of fitness landscapes (doi:10.1126/science.1257360).
# This is one part of the list.
# B1: PhoQ; a variant is named by its letters at X, in order, P23837 (parent)
# chain: MKKLLRLFFPLSLRVRFLLATAAVVLVLSLAYGMVALIGYSVSFDKTTFRLLRGESNLFYTLAKWENNKLHVELPENIDKQSPTMTLIYDENGQLLWAQRDVPWLMKMIQPDWLKSNGFHEIEADVNDTSLLLSGDHSIQQQLQEVREDDDDAEMTHSVAVNVYPATSRMPKLTIVVVDTIPVELKSSYMVWSWFIYVLSANLLLVIPLLWVAAWWSLRPIEALAKEVRELEEHNRELLNPATTRELTSLVRNLNRLLKSERERYDKYRTTLTDLTHSLKTPLXXLQXXLRSLRSEKMSVSDAEPVMLEQISRISQQIGYYLHRASMRGGTLLSRELHPVAPLLDNLTSALNKVYQRKGVNISLDISPEISFVGEQNDFVEVMGNVLDNACKYCLEFVEISARQTDEHLYIVVEDDGPGIPLSKREVIFDRGQRVDTLRPGQGVGLAVAREITEQYEGKIVAGESMLGGARMEVIFGRQHSAPKDE
# Variants of: B1
# Assay: enrichment ratio after two sorts for PhoP signalling (ratio (wild type AVST 3.29)); higher = more functional
# Details: with PhoP (E. coli)
row,Variant,enrichment ratio
1,AGGC,6.35
2,QLKL,≤ 0.25
3,WMPK,≤ 0.25
4,RCNL,≤ 0.25
5,DYPC,≤ 0.25
6,DYYF,≤ 0.25
7,ISMK,≤ 0.25
8,RGMR,≤ 0.25
9,GAMR,≤ 0.25
10,CHGY,≤ 0.25
11,FVYI,≤ 0.25
12,VGQS,≤ 0.25
13,DQYF,≤ 0.25
14,LYRL,≤ 0.25
15,NWRQ,≤ 0.25
16,YDYA,≤ 0.25
17,AMFT,≤ 0.25
18,TNGT,2.2
19,RGTW,≤ 0.25
20,HNYC,≤ 0.25
21,NTGQ,≤ 0.25
22,KRHW,≤ 0.25
23,NNFS,≤ 0.25
24,MWSQ,≤ 0.25
25,TQSS,6.45
26,KNYA,≤ 0.25

row,Variant,enrichment ratio
1,NQPF,≤ 0.25
2,MFIR,≤ 0.25
3,CFMF,≤ 0.25
4,MCDG,≤ 0.25
5,PFPP,0.269
6,AFYK,≤ 0.25
7,FPNY,≤ 0.25
8,LRFI,≤ 0.25
9,SNPC,≤ 0.25
10,DVWN,≤ 0.25
11,DIGL,≤ 0.25
12,GNME,≤ 0.25
13,PDIR,≤ 0.25
14,GMFP,≤ 0.25
15,KNNL,≤ 0.25
16,DGCE,≤ 0.25
17,NFTC,≤ 0.25
18,AIVA,8.17
19,TQYM,≤ 0.25
20,YYIQ,≤ 0.25
21,WPAM,≤ 0.25
22,HYWN,≤ 0.25
23,LILH,≤ 0.25
24,RASI,≤ 0.25
25,PAGT,≤ 0.25
26,PGQE,≤ 0.25

row,Variant,enrichment ratio
1,YWPA,≤ 0.25
2,TKHR,≤ 0.25
3,DCIW,≤ 0.25
4,KHNF,≤ 0.25
5,WIWV,≤ 0.25
6,WYWQ,≤ 0.25
7,STEN,≤ 0.25
8,NFEI,≤ 0.25
9,MHRA,≤ 0.25
10,IEII,≤ 0.25
11,VTSD,≤ 0.25
12,EHMD,≤ 0.25
13,YTIM,1.25
14,GDYQ,≤ 0.25
15,IWTQ,≤ 0.25
16,MHNS,≤ 0.25
17,EAYT,≤ 0.25
18,VLNH,≤ 0.25
19,HCPM,≤ 0.25
20,QYSP,≤ 0.25
21,PGKY,≤ 0.25
22,NEAW,≤ 0.25
23,IQSN,≤ 0.25
24,RMFK,≤ 0.25
25,DPQK,≤ 0.25
26,LGFD,1.27

row,Variant,enrichment ratio
1,GVWY,≤ 0.25
2,RGYK,≤ 0.25
3,AHWW,≤ 0.25
4,MGWI,1.07
5,YTVS,≤ 0.25
6,EASE,≤ 0.25
7,RVDQ,≤ 0.25
8,LNTK,≤ 0.25
9,FMTR,≤ 0.25
10,GCLM,16.5
11,NSNW,≤ 0.25
12,MGNM,≤ 0.25
13,FKRP,≤ 0.25
14,HYPD,≤ 0.25
15,ITCH,≤ 0.25
16,GYMI,≤ 0.25
17,ADAC,0.792
18,IFVS,≤ 0.25
19,WQGM,≤ 0.25
20,GLII,0.337
21,YHCP,≤ 0.25
22,DGRW,≤ 0.25
23,AMYD,≤ 0.25
24,HDDQ,≤ 0.25
25,VTVP,≤ 0.25
26,ARMF,≤ 0.25

row,Variant,enrichment ratio
1,MHEY,≤ 0.25
2,PITQ,≤ 0.25
3,QPGI,≤ 0.25
4,QRDT,≤ 0.25
5,AMRA,≤ 0.25
6,FEAD,≤ 0.25
7,HHRR,≤ 0.25
8,HHVH,≤ 0.25
9,VAFF,0.535
10,FQIN,≤ 0.25
11,FWWS,≤ 0.25
12,VHAW,≤ 0.25
13,DFRC,≤ 0.25
14,ELAE,≤ 0.25
15,SNQL,8.37
16,HRSM,≤ 0.25
17,FVLK,1.61
18,FYAI,≤ 0.25
19,KSGT,≤ 0.25
20,FYED,≤ 0.25
21,VSLA,0.756
22,QYKP,≤ 0.25
23,NNWV,≤ 0.25
24,MDNL,≤ 0.25
25,FRWL,≤ 0.25
26,YEDH,≤ 0.25

row,Variant,enrichment ratio
1,EMLM,≤ 0.25
2,PYCQ,≤ 0.25
3,NKVQ,≤ 0.25
4,SRVD,≤ 0.25
5,TGKA,≤ 0.25
6,PYTK,≤ 0.25
7,ECYY,≤ 0.25
8,SLKC,≤ 0.25
9,LLFA,≤ 0.25
10,GFCA,≤ 0.25
11,YYGS,≤ 0.25
12,DITG,≤ 0.25
13,GGPC,≤ 0.25
14,NWRE,≤ 0.25
15,RHDG,≤ 0.25
16,WWLI,≤ 0.25
17,WENC,≤ 0.25
18,FKKF,≤ 0.25
19,VRKF,≤ 0.25
20,SESV,16.9
21,AFMA,≤ 0.25
22,FSIE,≤ 0.25
23,ANRQ,≤ 0.25
